Among the data in the RNAGym collection of RNA variant scans (doi:10.7554/elife.90254) are self-cleavage values, retold here.

The source gives no read counts; variants with many changes may rest on few reads.

B1: LINE1-mini (parent)
chain: GGCAGAGCUCAACACAGCGUGGCAAAGUGGCUGUGGCUAGACUGCC

The variants in the series derive from B1. The series can be described thus: self-cleavage, relative activity (ratio to wild type); higher = more cleavage; in vitro, sequencing; the parent is a self-cleaving ribozyme.
Turning to GGCGGAGCUCAACAAAGCGUGGCAAAGUGGCUGUGGCUAGAUUGCC [A4G C15A C42U], the self-cleavage came to 0.35.
As for GGCGGAGCUCAAAACAGCGUGGCAAAGGGGCCGUGGAUAGACUGCC [A4G C13A U28G U32C C37A], the self-cleavage is 0.03.
Take GGCCGAGCUCAACACAGCGUUGCAAGGUGGCUGUGGCUAGACUGCC [A4C G21U A26G]: the self-cleavage turned out to be 0.03.
GGCCGAGCUCAACACAGCGUGGCAAAGUGGCUGUGGCUACAACUCC [A4C G40C C42A U43C G44U]: the self-cleavage was 0.11.
For GGCGGAGCUUAACACAGCGUGGCAAUGUGGCUGUGGCUAGACUGCG [A4G C10U A26U C46G], the self-cleavage stood at 0.17.
The same measure for GGCCGAGCUCAACACAGCGCUGCAAAGUGGCUGUGGCUAGACUGCC [A4C U20C G21U]: 0.02.
Take GGCCGAGCUCAACACAGCGUGGCAAAGUGGCUAUUGGUAGACUGCC [A4C G33A G35U C37G]: the self-cleavage was determined as 0.05.
The same measure for GGCGGAGCUCUGCGCAGCGUGGCAAAGUGGCUGUGACUAGACUGCC [A4G A11U A12G A14G G36A]: 0.01.
GGCGGAGCUCAAAACAGCGUGGCAACGUGGCCGUGGCUAGACUGAC [A4G C13A A26C U32C C45A]: the self-cleavage was determined as 0.01.
Regarding GGCCGAGCUCAACACAGCGUCGCAAAGUGGCUGUGGUUAGACUGCC [A4C G21C C37U], the self-cleavage amounted to 0.03.
As to GGCGGAGGUCAACAUAGCGUGGCAAAGUGGCUGAGGUUAGACUGCC [A4G C8G C15U U34A C37U], the self-cleavage stood at 0.04.
As for GGCGGAGAUCAACACUGCGUGGCAAAGUGGCUGGUGAUAGACUGCC [A4G C8A A16U U34G G35U C37A], the self-cleavage worked out at 0.05.
Turning to GGCGGGGCUCAACACAGCGUGGCAAGGUGGCUGUAGCUAGACUCCA [A4G A6G A26G G35A G44C C46A], the self-cleavage worked out at 0.02.
Consider GGCGGAGCUCAAGCCAGCGUGGCAAAGUGGCUGUGGCUAGAAUGCA [A4G C13G A14C C42A C46A], for which the self-cleavage turned out to be 0.06.
Regarding GGCGGAGCUCGACACACCGUGGCAAAGUGGCUGUGGCUAGACUGCC [A4G A11G G17C], the self-cleavage came to 0.03.
Turning to GGCGGAGCUCAACACAGCGUGGCAUAUUGGCUGUGGCUAGACUGCC [A4G A25U G27U], the self-cleavage came out at 0.24.
Regarding GGCGGAGCUCAUCACAGCGUGGCAACGUGGCUGUGGCUAGACUGCC [A4G A12U A26C], the self-cleavage stood at 0.13.
Turning to GGCCGAGCUCAACACAGCGUGGCAAAGUGGCUGUGGCCAAACUGUC [A4C U38C G40A C45U], the self-cleavage is 0.04.
Take GGCGGUGCUCAACAGAGCGUGGCAAAGUGGAUGUGGCUAGACUGCC [A4G A6U C15G C31A]: the self-cleavage stood at 0.01.
As to GGCGGAGCUCAACACAGCGUGGCUAAGUGGCUGUGGCUCGACUGCC [A4G A24U A39C], the self-cleavage is 0.05.
Regarding GGCGGAGCUCAGCACAGCGUGGCUAAGUGGCUGUGGCUAGACUGCU [A4G A12G A24U C46U], the self-cleavage worked out at 0.
For the variant GGCGGAGAGCAACACAGCGUGGCAAAGUGGCUGUGGCUAGACUGCC [A4G C8A U9G], the self-cleavage amounted to 0.14.
As to GGCCGAGCUCAACACAGCGUGGCAAAGUGGCUUGGGCUAGACUGCC [A4C G33U U34G], the self-cleavage was 0.03.
Consider GGCGGAGAUCAAGACAGCGUGGCAAAGUGGCUCUGGCUAGACUGCC [A4G C8A C13G G33C], for which the self-cleavage is 0.29.
For the variant GGCGGAGCUCUAAACCGCGUGGCAAAGUGGCUGUGGCUAGACUGCC [A4G A11U C13A A16C], the self-cleavage worked out at 0.02.
In the case of GGCGGAGCUAAACACGGCGUGGCAAAGUUGCUGUGGCUAGACUGCC [A4G C10A A16G G29U], the self-cleavage amounted to 0.
For the variant GGCGGGGCUCAACACAGCGUGGCAAAGUUGCUGUGGCUAGACUGCC [A4G A6G G29U], the self-cleavage was 0.03.
As to GGCGGAGCUAAACACAGCGUAGCAAAGUGGCUGUGGCUAGACUGCA [A4G C10A G21A C46A], the self-cleavage was 0.02.
The same measure for GGCGGAGUUCAACACAGCGGGGCAAAGUGGCUGUGGCUAGACUGCC [A4G C8U U20G]: 0.05; for GGCGGAGAUCAACACUGCGUGGCAAAGUGGCUGUGGCUAGACUGCC [A4G C8A A16U]: 0.02; for GGCCGAGCUCAACACAGCGUGGCAAAGUGGCGGUGGCUAGAGUGCC [A4C U32G C42G]: 0.
Then GGCGGAGCUCAACACCGCGUGCCAAAGUCGCUCUGGAUAGACUGCC [A4G A16C G22C G29C G33C C37A], with 0.1; and GGCCGAGCCCAACACAGCGUGGCAAAUUGGCUGUGGCGAGACUGUC [A4C U9C G27U U38G C45U], with 0.01.
Then GGCGGAGAUCAAUAGAGCGUGGCAAAGUGGCCGUGGCUAGACUGCC [A4G C8A C13U C15G U32C], with 0.03.
On to GGCGGGACUCAACACAAGGUGGCAAAGUGGCUGUGGCUAAACUGCC [A4G A6G G7A G17A C18G G40A], for which the self-cleavage amounted to 0.15.
For GGCCGAGCUCAACACAGCGUGGCAAAGUGGCAGUGGCUAUACUGCC [A4C U32A G40U], the self-cleavage stood at 0.18.
Regarding GGCGGAGCUAAACACAGCGUGGCAUAGUGGCUGUGGCUAGGCUGCC [A4G C10A A25U A41G], the self-cleavage was 0.01.
For GGCGGUGCUCAACAGACCGUGGCAAGGUGGAUGUGGCUAGACUGCC [A4G A6U C15G G17C A26G C31A], the self-cleavage came out at 0.18.
Turning to GGCGGAGAUCACCCCAGCACGGCAAAGUUGUUGUGGCUAGACCGCC [A4G C8A A12C A14C G19A U20C G29U C31U U43C], the self-cleavage stood at 0.01.
Consider GGCGGAGCUCAACGUAGCGUGGCAAAUUGGCUGUGGCUAGACUGCC [A4G A14G C15U G27U], for which the self-cleavage amounted to 0.15.
Then GGCGGAGCUCAACAGAGCGUGGCAAAGUUGCAGUGGCUAGACUGCC [A4G C15G G29U U32A], with 0.03; and GGCGGAGCUCAGCACAGUGUGGCAAAGUGGCUGUGGCUAGACUGCC [A4G A12G C18U], with 0.02; and GGCGGAGCUAACCACAGCGUGGCAAAGUGGCUGUGGCUAGACCGCC [A4G C10A A12C U43C], with 0.04.
In the case of GGCCGAGCUCAACACAGCGGGGAAAAGUGGCUGUGGCUAGACUGCC [A4C U20G C23A], the self-cleavage amounted to 0.05.
Consider GGCGGAGGUCAAAACAGCGUGUCAAAAUGGCUGUGGGUAGUCUGCC [A4G C8G C13A G22U G27A C37G A41U], for which the self-cleavage came out at 0.07.
The same measure for GGCGGAGCUCGACACAGCGUGGGAAAUUGUCUGUGGCUAGACUGCC [A4G A11G C23G G27U G30U]: 0.23; for GGCCGAGCACGACAAAGCGUGGCAAGGUGACUGUGGCUAGACUGCC [A4C U9A A11G C15A A26G G30A]: 0.01.
For GGCGGAGCUCAAAACAGCGCGGCAAAGUGCCUGUUGCUAGACUGCC [A4G C13A U20C G30C G35U], the self-cleavage turned out to be 0.42.
On to GGCGGUGCUCAACACAGCGUGGCAAAGUGGCUGUGGCCGGACUGCC [A4G A6U U38C A39G], for which the self-cleavage was 0.13.
Regarding GGCGGAGCUCAACAGAGCGUGGCAAAGUGGCUGUGGCUUGACUGAC [A4G C15G A39U C45A], the self-cleavage amounted to 0.12.
As to GGCCGAGCACAACACUGCGUGGCAAAGUGGCUGUGGCUAGACUGCC [A4C U9A A16U], the self-cleavage was determined as 0.06.
Take GGCGGAGCUCAAUAGAGCGUGGCAAAGUGGCUUUGGCUAGACUGCC [A4G C13U C15G G33U]: the self-cleavage was determined as 0.01.
With GGCGGGGCUCAACUCAGCGUGGCAAAGUGGUUGUAGCUAGACUGCC [A4G A6G A14U C31U G35A], the self-cleavage came to 0.02.
In the case of GGCCGAGCUCAACACAGCGUGGCAAAGUAGCUGUUGCUAGACUGCC [A4C G29A G35U], the self-cleavage is 0.18.
For GGCGGAGUUCAUCACAGCGUGUCAAAGUGGCUGUGGCUAGACUGCC [A4G C8U A12U G22U], the self-cleavage is 0.78.
For the variant GGCGGAGCUCGACACAGCGUGGCAAAGAGGCUGUGGCUAGACUGCC [A4G A11G U28A], the self-cleavage worked out at 0.01.
